Reference: article PMC12136788
The list shows a part of the results.

T1: UNK ZnF1-3 (human, UniProt Q9C0B0 31-174)
T1 sequence: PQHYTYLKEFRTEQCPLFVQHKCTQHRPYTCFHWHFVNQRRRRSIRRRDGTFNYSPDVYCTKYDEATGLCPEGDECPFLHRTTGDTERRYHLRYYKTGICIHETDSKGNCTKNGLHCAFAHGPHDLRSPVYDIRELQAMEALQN

B1: 77941773_77949851_993_CDS_ENSG00000138758_ENST00000541121|human|control|control (ssRNA)
RNA: GGGAGUUCUACAGUCCGACGAUCCAUUUCUUCUUCUUUCUUCUGCAGUUCUCCCAGGAAUUCAUUCCUUUUUGCUUCAUAUGUCUCCUGAAGACUGAAGGGUUUGCUGUCAGGGUCAGUGUCCUUGAACCCCAUCUCUUCAAGCAACAGAGGAUUGAGCAUCA
B2: chr11:46765198:46765199:-_ENSG00000175216_ENST00000415402|hu_mus|FALSE|FALSE (ssRNA)
RNA: GGGAGUUCUACAGUCCGACGAUCUACAGAAUACAGUGUCCCUUCAGGGCUACAGAAGAAGAGCUCACAACUCAAAAGGAACUAUUAAAAGAGUUUCUAAUGGCUGAAAGCUAGGAAAAAUUAGGACAAUUUUACAAAUGAGCCCAACAGAGGAUUGAGCAUCA
B3: chr12:46321692:46321693:-_ENSG00000139218_ENST00000369367|hu_hu|FALSE|FALSE (ssRNA)
RNA: GGGAGUUCUACAGUCCGACGAUCGCUCUCUAUAAGCUCCUCUGUUUUUAGUGUAAAAUCUUUAUGUUCAGUAAUUUCUACUAGGGAACUCUCUGUUAUUUUUUCUUCAUUAACCACUGACUCUACAUUCUCAGAUAAGUCACUCAACAGAGGAUUGAGCAUCA
B4: chr11:86887402:86887403:-_ENSMUSG00000061666_ENSMUST00000020804|mus_mus|FALSE|FALSE (ssRNA)
RNA: GGGAGUUCUACAGUCCGACGAUCAGAGAUGUGCCUACUGAGGAAUCGCUGUUUCUUUCUCUGGUGCAGCAACGCUGGGUAUUUAAGCAACAAGAACGAGGUGACCAAAUAUCCCCCCAGAGUAGAGAGAAGGCAAAAAGCCGCCAACAGAGGAUUGAGCAUCA
B5: chr12:16048344:16048345:+_ENSG00000023734_ENST00000419869|hu_hu|hu_hu_hu_mus_True|1_58 (ssRNA)
RNA: GGGAGUUCUACAGUCCGACGAUCAGAUCGUCCAUAAGUAAUAACCAAAAUCUCUCCUUCAGGAAUAUACUCCAUGCUACUAACAGACAUAUUAAAAUUCAGAGAUUUCACUUCUGUCAUUGUGGCAUGAUCCCAGAGUCGAACCAACAGAGGAUUGAGCAUCA
B6: 11318127_11319362_1394_CDS_ENSMUSG00000022241_ENSMUST00000022849|mouse|control|control (ssRNA)
RNA: GGGAGUUCUACAGUCCGACGAUCCGAGAGCUCAUUCCUAUGCAGCACACCAAAGUCAGCUAGCCGCAGGGGCAGCUCUCGCCAGGACCGUGGCCGGUGAUCGAACAUCAGGCAGUGUCCCGGGCAGUUCAUGGGCUUAAGUGCCAACAGAGGAUUGAGCAUCA
B7: 41309195_41313217_1113_3pUTR_ENSMUSG00000025016_ENSMUST00000025989|mouse|control|control (ssRNA)
RNA: GGGAGUUCUACAGUCCGACGAUCUCCAAAGUACCCGUUCACUGGCGAUGUAGCAGCAUAGACAAAUAUGGCUGUGCUGAGCAUUGACCCCCUCUCUGUAUAUAAGUCCUCUAUCAUGGCAACAAUAAUAACAAUGAGAGACACCAACAGAGGAUUGAGCAUCA
B8: chr18:21054979:21054980:+_ENSG00000101782_ENST00000339486|hu_mus|FALSE|FALSE (ssRNA)
RNA: GGGAGUUCUACAGUCCGACGAUCCUUUACUUCUUUUAAUUUAGGGGCUGGAACUUGAUCAUGGCCAAUGAAAGACAUAACUAAAAUGUGCUUCUUAAGCAGUACAACUGUUGGACAAGGAAUUCCAGCCUUCUGCAUUCUUGUCAACAGAGGAUUGAGCAUCA
B9: chr15:43699750:43699751:-_ENSG00000067369_ENST00000382044|hu_hu|FALSE|FALSE (ssRNA)
RNA: GGGAGUUCUACAGUCCGACGAUCACACUUCAGCACCGAGGCUGGGCAUGAGGGGUCCGUCACCACCACAUCAAAUACCCCUAAAGCAAUAUCUUUGUUAUGGGCACUUGAAUGGUGCUGCUUCACAGAGGCUGCACCACCAGUCAACAGAGGAUUGAGCAUCA
B10: chr3:112255392:112255393:-_ENSG00000144848_ENST00000283290|hu_mus|FALSE|FALSE (ssRNA)
RNA: GGGAGUUCUACAGUCCGACGAUCUGAACACAUAGGAGGUGGUGGGAGAUGAGGAUGGUUUUCAAUGGUCACUGUUUUCUUCACAUGAUCUUGACUGAUGUCUUCAUACAUGUGCUCAACUGUUAAAGGCUGCCGUUGCUCAUCCAACAGAGGAUUGAGCAUCA
B11: chr14:35078925:35078926:-_ENSG00000129515_ENST00000362031|hu_hu|FALSE|FALSE (ssRNA)
RNA: GGGAGUUCUACAGUCCGACGAUCAAAAUUUGGCAAUGAACUCUUUGUGUGAACAGUGAAUUUUACUUUAUCCCGCUCACUAAGAGCAUCAGAAAUGUCCACCUGCAGAGCAGCAUCACUUUGAAGAUCUACAUUUAUUGCUUUCAACAGAGGAUUGAGCAUCA
B12: chr5:69958400:69958401:+_ENSMUSG00000029208_ENSMUST00000154728|mus_hu|FALSE|FALSE (ssRNA)
RNA: GGGAGUUCUACAGUCCGACGAUCGUCAUAAAAAUCUACCACAAUUUCAUUCAAAGGAAAGAGAUAUUUAAGCAUAACUCUAUUUUGAUCAAUAAAUAUCAUAUUCUUCUGAACUGCUCUUCGAGCCUCGCAAAGCAUCAUUAUCAACAGAGGAUUGAGCAUCA
B13: chr7:54823571:54823572:-_ENSG00000132432_ENST00000352861|hu_mus|hu_hu_hu_mus_False|48_58 (ssRNA)
RNA: GGGAGUUCUACAGUCCGACGAUCUCCCAUGAUAGCAAAUCCUAUAGCUGUAGCCAUGGCAAUCUUCUGGAAUUCUUUUCUAUCAGGUUUAGUGCAUCUUUUAACCAGCCGAAUUGAGUCCUUUACAAACUGCCGGCUGGGCUCCAACAGAGGAUUGAGCAUCA
B14: chr5:128440902:128440903:+_ENSG00000066583_ENST00000173527|hu_mus|hu_hu_hu_mus_True|18_58 (ssRNA)
RNA: GGGAGUUCUACAGUCCGACGAUCUUGAACGGUGCUGCCAAGUCCUUUGGGGUAUUGUUCCGUUAUGAUAACUGGAAUUCCUAAAAUCCGAGCUCCUUGCAACAGUCUCUGUCCCACGCUAAUAAUAUCCCCAAAGUAUUUGAUCAACAGAGGAUUGAGCAUCA
B15: chr3:98531265:98531266:-_ENSG00000057019_ENST00000326840|hu_mus|FALSE|FALSE (ssRNA)
RNA: GGGAGUUCUACAGUCCGACGAUCUCCGAGCAGUUCCACUUUCAUGGCAAUUUUCUGUUGCCACUGGACAGGGUUCACUCUAAUGAAACGUGCAAUAAUUGGUGGCAAAAAGUUAUUACGAACAUCCUUGUGAUAAUCUUUGUUCAACAGAGGAUUGAGCAUCA
B16: chr1:160278953:160278954:-_ENSG00000122218_ENST00000241704|hu_mus|FALSE|FALSE (ssRNA)
RNA: GGGAGUUCUACAGUCCGACGAUCCUGGGAGUCUGCGUCUUUGGGGAUGGUGUAUAGGUCGUAGGUACUGUUCUCUAGAUUGCUUGCUCUGGUGCAGAGCAGCACUGCGUUUUCUGCUGGAUUGUAUGACAUGUUGAAUACUGGCAACAGAGGAUUGAGCAUCA
B17: chr16:45382771:45382772:-_ENSMUSG00000022661_ENSMUST00000163230|mus_mus|mus_mus_mus_hu_True|88_108 (ssRNA)
RNA: GGGAGUUCUACAGUCCGACGAUCCUGAGUGUUAUUGUAAGACAAAUGGAUAGGGAGGGCAUGCUUCUCAAAAAAUGUGAGCUAUUGUCUAAGACUAACAAUAUUUAUCUAGCUAUAAAAAUAAGUUAAAUGAAUAAGUUAAGACAACAGAGGAUUGAGCAUCA
B18: chr2:5814250:5814251:-_ENSMUSG00000025816_ENSMUST00000102981|mus_hu|mus_mus_mus_hu_True|28_78 (ssRNA)
RNA: GGGAGUUCUACAGUCCGACGAUCUUCCUUUCCGGUUUCUGAAUUUCUGGUAGAACUGCACAGAAAGGUUUGAUAACUUCUAAAAAUUUGAUGCCCAUGGCUGCUGCUCAGCACACCCAGGGGGAAACCGCGGCCUCGGCGCUGCAACAGAGGAUUGAGCAUCA
B19: chr6:40197388:40197389:+_ENSMUSG00000057716_ENSMUST00000061740|mus_mus|mus_mus_mus_hu_False|68_68 (ssRNA)
RNA: GGGAGUUCUACAGUCCGACGAUCGAGACACUGGGGUGGAUUUAUUCCACCUCUGUUUGGGUGCUAGUAAGAUAGAUUGUUAUUUUGGGAUUCAUGGCCUUGAAUAUCAAGAGGGAAAGGAAGAGGAUGGAAAGAGUCAAGAGUCAACAGAGGAUUGAGCAUCA
B20: chr7:56126341:56126342:+_ENSG00000146731_ENST00000540286|hu_mus|hu_hu_hu_mus_True|98_108 (ssRNA)
RNA: GGGAGUUCUACAGUCCGACGAUCCAUAUUUCUCCUUUUAGCUCUGCGCAGAGCUACGAUCCCUUCUUUCGCAAGGGCAUCUAAGGAAAAGGGGUCAAUCCCCUUUUGAUUAAUAACGACAAAUCCUUUAUCUGAGUCACCACACAACAGAGGAUUGAGCAUCA
B21: chr1:46159212:46159213:+_ENSG00000159596_ENST00000372025|hu_mus|hu_hu_hu_mus_True|18_18 (ssRNA)
RNA: GGGAGUUCUACAGUCCGACGAUCUCUGAUCCCUCCCAAGAAAGCUAGGAAACCGGCUCCAUAAGCCAUCUGAGUGAAAGCUAGGACGGGGAUAUAAGACUUUGUUAUUACCAUGAGCAGUGGUGGAGCAGUAAAGGGGAUUAACAACAGAGGAUUGAGCAUCA
B22: chr1:39494447:39494448:+_ENSG00000168653_ENST00000372967|hu_mus|hu_hu_hu_mus_False|1_18 (ssRNA)
RNA: GGGAGUUCUACAGUCCGACGAUCGCACCGAGCGGCGUUCUUAUAGGGCUGUUCUGCGCUUAGGAACAUAAAGUGCCGGUCCAGGCUGAUGCCCAGCUUUUUCUGUAUGUCAAGGAAAGGCAUGGCCCUGCAGUGCCCCCUUGACAACAGAGGAUUGAGCAUCA

Target: T1, UNK ZnF1-3
Test: nsRBNS (natural sequence RNA bind-n-seq); RBNS binding buffer (assumed for nsRBNS): 25 mM Tris pH 7.5, 150 mM KCl, 3 mM MgCl2, 0.01% Triton X-100, 500 ug/ml BSA, 20 U/ml SUPERase-In, 4 C; UNK is unkempt and MSI1 is Musashi-1; names of the RNAs are library labels; protein concentration not given here; high values mean tight binding

Binder | binding signal [enrichment R]
B1 | 0.403
B2 | 1.81
B3 | 0.553
B4 | 1.78
B5 | 0.733
B6 | 1.1
B7 | 1.25
B8 | 0.871
B9 | 0.836
B10 | 0.954
B11 | 1.13
B12 | 0.862
B13 | 0.76
B14 | 1.02
B15 | 0.652
B16 | 0.595
B17 | 1.57
B18 | 1.2
B19 | 1.66
B20 | 0.736
B21 | 2.38
B22 | 0.741
